This passage reports binding signal results from PMC6212790.

Some of the results follow. At the low end of the ranking, values are background and their order means little.

The target of the assay is T1, GST-Rok-C97-191 (UniProt O34857).
T1 sequence: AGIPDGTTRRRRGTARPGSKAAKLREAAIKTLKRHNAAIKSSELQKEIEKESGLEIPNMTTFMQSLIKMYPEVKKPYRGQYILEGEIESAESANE
As to the kind of experiment: protein binding microarray.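 Also: rank score from −0.5 (least bound) to 0.5 (best bound).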 The conditions noted are these: Rok is a gene silencer of Bacillus subtilis; high values mean tight binding; most listed sequences are background and not binding sites; double strand, one strand shown.
Regarding ACCGGAGT, the binding signal was -0.201 E-score.

In turn, CGGTCACG displayed a binding signal of 0.0924 E-score.

For CGATGTCA, the binding signal is -0.131 E-score.

As for GCAGTGCA, the binding signal was -0.152 E-score.

In turn, ACCTCGTC had a binding signal of -0.191 E-score.

As for CGGCGTTC, the binding signal is -0.238 E-score.

As to ACTGTGTA, the binding signal turned out to be 0.221 E-score.

As to CTGTGCAC, the binding signal was -0.0548 E-score.

With ACCTGCTC, the binding signal is -0.278 E-score.

In turn, GGATGTGA yielded a binding signal of -0.0443 E-score.

On to CGTACAGA, for which the binding signal is 0.045 E-score.

TTCAAGAA yielded a binding signal of -0.14 E-score.

Sequence AAAAGGCC yielded a binding signal of -0.158 E-score.

Regarding GCAGCGCC, the binding signal is -0.354 E-score.

Take GACTTTCA: the binding signal is -0.191 E-score.

TCGTACGA yielded a binding signal of -0.105 E-score.

On to CAATCCCG, for which the binding signal was -0.0986 E-score.

GTAATCGA returned a binding signal of 0.0364 E-score.

In the case of CCATACGA, the binding signal is -0.0868 E-score.

GGTCCTGA came in with a binding signal of -0.143 E-score.

As for CAATACGA, the binding signal is 0.0589 E-score.

The sequence CCCTGCCG yielded a binding signal of -0.196 E-score.

CCAAATGC displayed a binding signal of 0.126 E-score.

Sequence AAAGACAC registered a binding signal of 0.000372 E-score.

In the case of ATGCGAAC, the binding signal was -0.178 E-score.

In the case of AAGCATAT, the binding signal was -0.026 E-score.

In turn, GATCACGA returned a binding signal of -0.0434 E-score.

On to TGTTATAA, for which the binding signal worked out at 0.18 E-score.

For the sequence GAATGCGC, the binding signal is -0.193 E-score.

For GGCGCACC, the binding signal was -0.202 E-score.

On to GCATGATA, for which the binding signal was found to be 0.0223 E-score.

For the sequence AGGAAAAA, the binding signal was -0.0818 E-score.

Sequence AGCCCCCC returned a binding signal of -0.427 E-score.

The sequence ACCCGTTG yielded a binding signal of -0.159 E-score.

On to CTCCTGGC, for which the binding signal is -0.135 E-score.

On to AATAGCGC, for which the binding signal came to 0.114 E-score.

As to CAATCCGG, the binding signal was -0.162 E-score.

As for AAATATTG, the binding signal was 0.286 E-score.

Sequence CGACCCTC yielded a binding signal of -0.201 E-score.

As to AACCGAAG, the binding signal came to 0.119 E-score.

The sequence ACACCGAG had a binding signal of -0.124 E-score.

The sequence GTCAGTAA gave a binding signal of 0.0288 E-score.

Regarding AAGGAGCC, the binding signal was -0.27 E-score.

The sequence CGCCATAA had a binding signal of -0.243 E-score.

Take GCACGCAA: the binding signal was -0.136 E-score.

Take CGGAAGGA: the binding signal is -0.145 E-score.

Consider AGTCGAGC, for which the binding signal is -0.0631 E-score.

Regarding AATAGAAA, the binding signal was determined as 0.388 E-score.

For the sequence ACGACTAC, the binding signal was found to be 0.0696 E-score.

GTTGTGGA had a binding signal of -0.123 E-score.

Sequence AACACGAC showed a binding signal of -0.0459 E-score.

With AACACCGA, the binding signal was -0.0134 E-score.

CTGTGGTC registered a binding signal of -0.142 E-score.

In the case of CAGAAGTC, the binding signal is -0.107 E-score.

The sequence CGACAGCA yielded a binding signal of -0.292 E-score.

AGCTGACG gave a binding signal of -0.187 E-score.

The sequence CGAACCGA registered a binding signal of -0.0416 E-score.

For the sequence ACAGGAGG, the binding signal was -0.306 E-score.

As to CATTGAAC, the binding signal is 0.0279 E-score.

The sequence GTCCATGA had a binding signal of -0.137 E-score.

Regarding ATAGCCAG, the binding signal was -0.106 E-score.

In turn, ATTTGCTC displayed a binding signal of 0.161 E-score.

In turn, ATGGGGAC had a binding signal of -0.0853 E-score.

With ACCCACTA, the binding signal was 0.173 E-score.

For ACGTCGGC, the binding signal was -0.211 E-score.

With GCGCGACC, the binding signal was -0.258 E-score.

For CTAGGATC, the binding signal came out at 0.026 E-score.

In turn, ACAATTGG yielded a binding signal of 0.0304 E-score.

In turn, CTACCAGA displayed a binding signal of 0.183 E-score.

CACCACCG showed a binding signal of 0.0852 E-score.

GAGATTAA came in with a binding signal of 0.213 E-score.

The sequence GCGACTCC gave a binding signal of -0.193 E-score.

CGAAACAG: the binding signal is -0.228 E-score.

Sequence CGCCAGAA came in with a binding signal of -0.14 E-score.

Take AGTGTCTC: the binding signal is -0.1 E-score.

As to GCACGCAC, the binding signal was -0.00502 E-score.

Take AATTTGGA: the binding signal is -0.0155 E-score.

Regarding CAGGATTA, the binding signal was -0.0736 E-score.

As to ACCGATCG, the binding signal is -0.131 E-score.

In the case of GGATGCGA, the binding signal is -0.104 E-score.

The sequence GAGCCGCC showed a binding signal of -0.383 E-score.

Take CCGAACGA: the binding signal is -0.152 E-score.

TAATGAGA came in with a binding signal of 0.0923 E-score.

ACTGAGCT yielded a binding signal of 0.00475 E-score.

ACGCGTTG yielded a binding signal of -0.2 E-score.

ACGCATTC came in with a binding signal of -0.013 E-score.

In turn, CTTAGGCC showed a binding signal of -0.244 E-score.

As for AGTGGTCC, the binding signal was -0.131 E-score.

Regarding AAGGCTGA, the binding signal is -0.203 E-score.

Consider CACATAGA, for which the binding signal is 0.101 E-score.

CGTACCAA displayed a binding signal of 0.0159 E-score.

ACTAAAGT showed a binding signal of 0.175 E-score.

Turning to CGGCCTTA, the binding signal was -0.136 E-score.

CGGGACGA displayed a binding signal of -0.118 E-score.

Take GGATAATA: the binding signal is 0.236 E-score.

GCACTAGC gave a binding signal of -0.0811 E-score.

Consider CCCCCTAG, for which the binding signal was -0.227 E-score.

For the sequence ATCATGGC, the binding signal is 0.0284 E-score.

CAAGAGAC: the binding signal is -0.165 E-score.

In the case of AAAGCTAG, the binding signal was 0.177 E-score.

TATCCCCA returned a binding signal of -0.0814 E-score.

GATCTCTA gave a binding signal of 0.0918 E-score.

In turn, TAAACCTA came in with a binding signal of 0.061 E-score.

The sequence GCTCAGTA returned a binding signal of 0.0106 E-score.

In the case of CACTCAGC, the binding signal was -0.113 E-score.

In turn, GCGTCTCC registered a binding signal of -0.189 E-score.

For the sequence ATGGAAAG, the binding signal is -0.0465 E-score.

Sequence GCGGCTCA displayed a binding signal of -0.216 E-score.

On to AGTATTCG, for which the binding signal was -0.0298 E-score.

TCGTTACA came in with a binding signal of 0.071 E-score.

On to GAGGAATC, for which the binding signal is 0.075 E-score.

Take GCCAATAA: the binding signal is 0.133 E-score.

The sequence AACGCAAA had a binding signal of -0.043 E-score.

With GCCGGAAC, the binding signal is -0.178 E-score.

In turn, GCACGCGC registered a binding signal of -0.129 E-score.

In turn, CCGCGTCC had a binding signal of -0.259 E-score.

Take AAGGCGCA: the binding signal is -0.207 E-score.

On to ACCTGTAA, for which the binding signal was -0.0351 E-score.

On to GACAGAGC, for which the binding signal is -0.172 E-score.

As for ATTCGAAC, the binding signal came to 0.14 E-score.

CTTCTAAA: the binding signal is -0.083 E-score.

ATGCATCA registered a binding signal of 0.121 E-score.

Regarding GCCCCGCC, the binding signal is -0.319 E-score.

GGGCTGCA: the binding signal is -0.307 E-score.

Consider CCTCAGGC, for which the binding signal was -0.26 E-score.

AGAATACT: the binding signal is 0.236 E-score.

Regarding GGCTGTCA, the binding signal was -0.334 E-score.

As for AGTACGGC, the binding signal stood at 0.0247 E-score.

In the case of AGTGCAGA, the binding signal is -0.148 E-score.

ACGGAAAC yielded a binding signal of -0.0722 E-score.

For AGGACGAT, the binding signal was -0.233 E-score.

For the sequence GGCCTCAC, the binding signal was -0.248 E-score.

Turning to CAAATGCA, the binding signal was 0.00933 E-score.

As for ATCTGGTA, the binding signal is 0.115 E-score.

Consider CGGTCGCC, for which the binding signal is -0.346 E-score.

In the case of ATTGGGGA, the binding signal was -0.0754 E-score.

Take CATATAGC: the binding signal turned out to be 0.127 E-score.

Regarding ACGAACGC, the binding signal was -0.0579 E-score.

AAAGGCAA returned a binding signal of -0.183 E-score.

Regarding AGTTTCAT, the binding signal turned out to be 0.184 E-score.

CGTCGTCC returned a binding signal of -0.217 E-score.

For the sequence TCTGTACA, the binding signal is -0.0202 E-score.

As for AGATGTTC, the binding signal was determined as 0.0735 E-score.

On to ACCAGTAC, for which the binding signal is 0.0676 E-score.

As to ATGCCATC, the binding signal was -0.108 E-score.

The sequence CAGCCCAA registered a binding signal of -0.0664 E-score.

For the sequence AACAAAGA, the binding signal amounted to 0.0648 E-score.

In the case of AGTCTACC, the binding signal was -0.0117 E-score.

For the sequence AATCCGCT, the binding signal was -0.00819 E-score.

As to GGCCTCTA, the binding signal was -0.148 E-score.

GAGCACTC: the binding signal was -0.0202 E-score.

In turn, CCGCCCTA displayed a binding signal of 0.00839 E-score.

AACATAGA gave a binding signal of 0.101 E-score.

In turn, GTCGTGTA came in with a binding signal of 0.0748 E-score.

GGCGAATA came in with a binding signal of 0.0467 E-score.

GGCTCGGA displayed a binding signal of -0.423 E-score.

Turning to ATCATTCC, the binding signal stood at 0.0814 E-score.

With CAGTGCTC, the binding signal was -0.332 E-score.

As for GCTGACCA, the binding signal is -0.0571 E-score.

Regarding TCCTTAGA, the binding signal was -0.0206 E-score.

ACAGGAAC: the binding signal is -0.0814 E-score.

In the case of AAGGCTCC, the binding signal is -0.162 E-score.

CGAACGTA showed a binding signal of -0.048 E-score.

Regarding AGGATTAC, the binding signal was -0.118 E-score.

As for TCTAGTCA, the binding signal stood at 0.196 E-score.

In the case of TCGCGGCA, the binding signal is -0.19 E-score.

On to ATAAGAAC, for which the binding signal was found to be 0.0806 E-score.

Sequence TAAGCGCA yielded a binding signal of -0.025 E-score.

Sequence ATAAATAT returned a binding signal of 0.369 E-score.

For GCACGGCA, the binding signal was -0.224 E-score.

CAAATAGC: the binding signal stood at 0.141 E-score.

Sequence GGAATGCA gave a binding signal of -0.0343 E-score.
